Reference: PubChem BioAssay AID493208 (National Center for Advancing Translational Sciences (NCATS), 2011)
The whole screen tested about 44,000 compounds, of which about 340 (0.77%) were called active. Roughly 5% stayed inconclusive and do not appear here. Calls follow the shape of the dose curve; as a rule, active = well fitted inhibition curve with a large enough effect; inconclusive = small, poorly fitted or top-dose-only effect; inactive = flat fitted curve, though single readings scatter. The list shows a part of the results.

assay: Acumen qHTS Assay for Inhibitors of the mTORC1 Signaling Pathway in MEF (Tsc2-/-, p53-/-) Cells: Sytravon; details: phospho-rpS6 immunofluorescence/PI, 24 h; series mostly up to 38.3 µM; activity change, negative = inhibition: at the top concentration; also: nearly all actives have a fitted effect of over 50% in size;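 as to activity change, negative = inhibition: plate controls were DMSO for no effect and rapamycin for full effect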
Outline: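 Read-out: phospho-S6 Alexa-488 intensity over PI intensity per well, scored as % active cells using thresholds from rapamycin (7.5 nM) and DMSO controls. Tsc2-/-, p53-/- MEFs exposed to compound for 24 h; PI cell count recorded as viability.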
Potency is read from the fitted curve at half-maximal effect.

SMILES	activity change, negative = inhibition	Potency
CCOC(=O)c1cc(-c2ccc(OC)c(S(=O)(=O)N3CCN(c4ccccc4)CC3)c2)on1	inactive: 9.63%	–
COc1ccc(S(=O)(=O)c2nnn(-c3cccc(Cl)c3)c2N)cc1	inactive: -2.41%	–
CCOC(=O)c1c(S(=O)(=O)N2CCC(C(=O)NCc3ccccc3Cl)CC2)c(C)n(C)c1C	inactive: 0.25%	–
COCCn1ccc2c(OCC(=O)Nc3cccc(C(F)(F)F)c3)cccc2c1=O	inactive: -8.62%	–
COc1cccc(CNC(=O)c2ccc3c(c2)sc2nc(-c4cccc(OC)c4)cn23)c1	inactive: -3.48%	–
COc1ccc(N2CC(NC(=O)C(c3ccccc3)c3ccccc3)CC2=O)cc1 (centres undefined)	inactive: -1.07%	–
CCOC(=O)c1ccc(NC(=O)Cn2nc(C)c3nn(-c4ccc(Cl)cc4)c(C)c3c2=O)cc1	inactive: 7.54%	–
CCOC(=O)c1c(NC(=O)C(C)Sc2cn(CCNC(=O)c3ccc(OCC)cc3)c3ccccc23)sc2c1CCC2 (centres undefined)	inactive: 10.9%	–
Cc1cccc(N2CCN(C(=O)c3cnn(-c4ccccc4)c3C3CCN(C(=O)OC(C)(C)C)CC3)CC2)c1C	inactive: -19.9%	–
Clc1ccc(CSc2nncn3c2cc2occc23)cc1	inactive: 0.254%	–
Cc1ccc(Nc2ncnc3c2nc2n3CCCC2)cc1F	inactive: -1.16%	–
Cc1nc2nc[nH]n2c(=O)c1NS(=O)(=O)c1ccc(Br)cc1	inactive: -13.5%	–
COc1ccccc1CNC(=O)C1CCN(S(=O)(=O)Cc2ccccc2)CC1	inactive: -0.553%	–
CC1=C(c2ccc(Cl)cc2)S(=O)(=O)N=C1N1CCN(c2cc(C)ccc2C)CC1	inactive: 1.43%	–
COc1ccc(CNC(=O)C(=O)NCC(c2cccnc2)N2CCN(c3ccccc3)CC2)cc1 (centres undefined)	inactive: -4.04%	–
Cc1cccc(N(C)S(=O)(=O)c2ccc3c(c2)NC(=O)CC(=O)N3)c1	inactive: -6.55%	–
Cc1cc(C)cc(-n2c(SCC(=O)Nc3ccc4c(c3)OCO4)nc3c([nH]c4ccccc43)c2=O)c1	inactive: -10.7%	–
COc1cccc(Cn2c(=O)n(Cc3ccccc3)c(=O)c3c2c2cc(OC)ccc2n3C)c1	inactive: -4.59%	–
CCCN1CCCc2cc(CN(CCCN3CCOCC3)C(=O)Nc3ccc(Cl)c(Cl)c3)ccc21	inactive: -12.4%	–
Cc1cc2[nH]c(=O)c(=O)[nH]c2cc1S(=O)(=O)N1CCN(c2ccccc2F)CC1	inactive: 1.16%	–
COC(=O)c1c(NC(=O)c2ccc(C(C)(C)C)cc2)sc2c1CCC(C)C2 (centres undefined)	inactive: 0.371%	–
CCOC(=O)c1c(NC(=O)COc2ccccc2)sc(C(C)=O)c1C	inactive: -0.818%	–
COc1cc(C2CC(=O)c3c([nH]c(C(=O)OC4CCCC4)c3C)C2)cc(OC)c1OC (centres undefined)	inactive: -3.6%	–
Clc1ccc(-c2cn3cc(Cc4ccccc4)sc3n2)cc1	inactive: -3.67%	–

SMILES	activity change, negative = inhibition	Potency
CCc1ccc(NC(=O)CNC(=O)Cn2c(C)cc3ccccc3c2=O)cc1	inactive: 0.308%	–
CCOc1ccc(CCNC(=O)c2ccc(CSCc3ccccc3C)o2)cc1OCC	inactive: -14.3%	–
O=C(CSc1nc(=O)n(Cc2ccncc2)c2c1CCC2)Nc1cccc(F)c1	inactive: -18.3%	–
CCN(C(=O)C(NS(=O)(=O)c1ccc(Br)s1)c1ccccc1)c1ccc(C)c(C)c1 (centres undefined)	inactive: -5.43%	–
CC1(C)CC(=O)c2cc(-c3nc(-c4ccc(F)cc4)cs3)c(=O)[nH]c2C1	inactive: -14.9%	–
CCC(=O)N1c2ccccc2CC1C(=O)NCCN1CCN(c2cc(Cl)ccc2C)CC1 (centres undefined)	inactive: 14.9%	–
COc1ccc(C)cc1NC(=O)Cn1cc(S(=O)(=O)N2CCC(C)CC2)c2ccccc2c1=O	inactive: 3.6%	–
O=C(Cc1ccc(Cl)cc1)Nc1ccc2oc(-c3ccc(F)cc3)nc2c1	inactive: -22.1%	–
Cc1cc(C)cc(OCC(=O)N2CCC(c3nc4ccccc4o3)CC2)c1	inactive: -0.58%	–
COC(=O)c1ccccc1NC(=O)C(Cc1ccccc1)N1Cc2ccccc2C1=O (centres undefined)	inactive: 2.68%	–
CCOc1ccc(NC(=O)c2c(NCc3cc(OC)c(OC)cc3OC)sc3c2CCCC3)cc1	inactive: -11.9%	–
CC(=O)Nc1ccc(S(=O)(=O)NCC2CCC(C(=O)NCCc3ccc(C)cc3)CC2)cc1 (centres undefined)	inactive: -2.55%	–
COc1ccc(NC(=O)Cn2c(-c3ccc(F)cc3)cc(C(C)=O)c2C)c(OC)c1	inactive: -11.2%	–
O=S(=O)(c1ccccc1)n1nc(-c2ccc(Cl)cc2)nc1NCc1ccccc1	–	active: 14.7 µM
CC(=O)c1cccc(NC(=O)c2ccc3c(c2)N(Cc2ccc(C)cc2)CCS3)c1	inactive: 1.54%	–
COc1ccc(CCNC(=O)Cn2c(=O)nc(-c3ccccc3)c3cc(Cl)ccc32)cc1OC	inactive: 2.43%	–
N#C/C(=C\c1ccc(F)cc1)c1nc(-c2ccc(-c3ccccc3)cc2)cs1	inactive: -2.24%	–
CCCC1=Nc2cc(C(=O)NC3CCCCC3)ccc2Sc2ccc(C)cc21	inactive: -2.53%	–
Cc1cc(C)c2c(=O)c3c(oc2c1)C(=O)N(CCCOC(C)C)C3c1ccccc1F (centres undefined)	inactive: 1.36%	–
COCCCNc1nc2c(c(=O)[nH]c(=O)n2C)n1CC(O)COc1ccc(Cl)cc1 (centres undefined)	inactive: 3.06%	–
COc1cccc(CC(=O)Nc2c(C(=O)N3CCN(c4ccccc4F)CC3)oc3ccccc23)c1	inactive: -1.18%	–
CCOC(=O)c1nc(NCc2ccc(Cl)cc2)c2c(C)noc2n1	inactive: -2%	–
CC1=C(C(=O)Nc2ccccc2C)C(c2ccccn2)n2ncnc2N1 (centres undefined)	inactive: 0%	–
CCC(=O)C1=C(c2ccc(C)cc2)N(C(=O)CC)n2c(nnc2C2CCCCC2)S1	inactive: 0.337%	–

SMILES	activity change, negative = inhibition	Potency
Cc1cccc(C)c1NC(=O)CS(=O)(=O)c1nc(-c2ccc(Cl)cc2)cn1-c1ccccc1	inactive: 15.1%	–
CC(=O)N1CCc2cc(S(=O)(=O)NC(CC(C)C)C(=O)Nc3cc(C)cc(C)c3)ccc21 (centres undefined)	inactive: -0.828%	–
Cc1c(Cl)cccc1NC(=O)CCOc1ccccc1	inactive: 4.69%	–
CCOc1ccc(Cn2c(=O)sc3ccccc32)cc1	inactive: 9.36%	–
Cc1cccn2c(=O)c3cc(C#N)c(=O)n(-c4nnc(SCc5ccc(Cl)cc5)s4)c3nc12	inactive: 0.272%	–
Cc1cc(C)c2c(c1)c(C)cc1nnc(SCc3ccccc3C#N)n12	inactive: 0.178%	–
Cc1ccc(NC(=O)CN2C(=O)COc3ccc(S(=O)(=O)NC4CCCC4)cc32)cc1N(C)C	inactive: -0.443%	–
Cc1ccc(C)c(Cn2c(=O)c3c(nc4n3CCN4c3ccccc3)n(C)c2=O)c1	inactive: 9.17%	–
CCSc1ncc(Cl)c(C(=O)Nc2sc3c(c2C(=O)NCCCOC)CCCC3)n1	inactive: 0%	–
COc1ccc(NC(=O)CSc2nc(-c3cccc(C)c3)[nH]c2-c2ccccc2)cc1OC	inactive: -6.97%	–
CC(C)c1noc(-c2ccccc2OCC(=O)Nc2cccc([N+](=O)[O-])c2)n1	inactive: 1.64%	–
CC(C)Sc1ncc(Cl)c(C(=O)Nc2ccc(S(=O)(=O)N3CCCCC3)cc2)n1	inactive: -2.51%	–
Cc1ccc(NC(=O)C2CCN(S(=O)(=O)c3cccc4nonc34)CC2)cc1C	inactive: -9.21%	–
Cc1ccc(-c2cc3nc(-c4ccccc4)cc(C(F)(F)F)n3n2)cc1	inactive: 5.55%	–
COc1cc(C2CC(=O)Oc3c2c(=O)[nH]c2ccccc32)cc(OC)c1OC (centres undefined)	inactive: 0.513%	–
O=C(Oc1ccccc1F)c1nc(SCc2ccc(F)cc2)ncc1Cl	inactive: -2.3%	–
CCOc1ccc(Nc2c(S(=O)(=O)c3ccccc3)cnc3ccc(F)cc23)cc1	inactive: -6.03%	–
COc1ccc(-c2nc3scc(CCNS(=O)(=O)c4ccc5c(c4)OCCO5)n3n2)cc1	inactive: -6.35%	–
CC(=O)N1CCc2cc(Br)cc(S(=O)(=O)CCC(=O)N3CCN(c4ccccc4Cl)CC3)c21	inactive: -21%	–
Cc1ccc(CN(C(=O)COc2cc(C)c(Cl)c(C)c2)c2ccccn2)o1	inactive: -0.843%	–
CCOc1ccc(-c2c(C)nn3c(C)c(C(=O)Nc4cc(C)cc(C)c4)cnc23)cc1OCC	inactive: -9.87%	–
Cc1cc(C)c2sc(N3CCN(C(=O)c4ccc(N(C)C)cc4)CC3)nc2c1	inactive: 0.649%	–
Cc1ccc(S(=O)(=O)c2c(O)cc(C)c(NS(=O)(=O)c3ccc(Cl)cc3)c2C)cc1	inactive: -9.72%	–
COc1ccccc1N1CCN(S(=O)(=O)c2c(C)nc3sccn3c2=O)CC1	inactive: 2.49%	–

SMILES	activity change, negative = inhibition	Potency
CC(C)c1nn2c(=O)cc(COC(=O)c3ccco3)nc2s1	inactive: -9.28%	–
O=C(CSc1nc(=O)[nH]c2c1CCCC2)NCc1ccccc1	inactive: -0.645%	–
COc1ccc(N2C(=O)CSC23C(=O)N(CC(=O)NCCc2ccccc2)c2ccccc23)cc1 (centres undefined)	inactive: -4.44%	–
COc1ccccc1C(=O)Nc1ccc(C(=O)OCc2cc(=O)n3nc(C4CC4)sc3n2)cc1	inactive: 0%	–
Cc1nn2c(C)c(C(=O)NC(C)(C)C)cnc2c1-c1ccc(F)cc1	inactive: -1.08%	–
Cc1c(C)c2cc3c(c(C)c2oc1=O)OCN(CCc1ccc(F)cc1)C3	inactive: -4.25%	–
Cc1ccc(N2CC(NC(=O)c3cc4ccccc4o3)CC2=O)cc1 (centres undefined)	inactive: 0.384%	–
CCCCNC(=O)c1cc2n(n1)CCCN(Cc1ccc(C)cc1)C2=O	inactive: 0%	–
COc1ccc(NC(=O)Cn2c(=O)n(Cc3ccccc3)c(=O)c3sc4ccccc4c32)cc1	inactive: 3.44%	–
CCCCN(C)CCNC(=O)c1cc2c(=O)n(C)c3ccccc3c2n1C	inactive: -12.8%	–
COc1ccc(CNC(=O)CCc2c(C)c3cc4c(C)coc4c(C)c3oc2=O)cc1OC	inactive: 3.74%	–
CN1C(=O)c2ccccc2Sc2ccc(NC(=O)c3ccc(C(F)(F)F)cc3)cc21	inactive: -0.355%	–
N#Cc1ccccc1NS(=O)(=O)c1ccc(N2CCCCS2(=O)=O)cc1	inactive: 0%	–
CCCc1nn2c(=O)cc(COC(=O)c3ccc(NC(=O)COc4ccccc4)cc3)nc2s1	inactive: 3.15%	–
CCn1cc(C(=O)N2CCN(c3ccccc3)CC2)c(=O)c2cc(S(=O)(=O)N3CCOCC3)ccc21	inactive: -4.38%	–
CCC(Oc1ccc(F)cc1)C(=O)Nc1c(C(=O)c2ccc(C)cc2)oc2ccccc12 (centres undefined)	inactive: -2.19%	–
COC(=O)c1cc2oc3ccccc3c2n1Cc1ccc(Cl)cc1	inactive: 0.293%	–
COc1ccc(-c2nc3scc(CCNS(=O)(=O)c4ccc(F)cc4C)n3n2)cc1	inactive: -7.83%	–
COc1cccc(CN2c3ccccc3-c3nc(SCC(=O)Nc4ccccc4Cl)ncc3S2(=O)=O)c1	inactive: -6.76%	–
COc1ccc(Nc2cc(C(=O)NCCCN3CCN(c4ccccc4F)CC3)c3ccccc3n2)c(OC)c1	inactive: -1.06%	–
Cc1ccc(-c2ccc(=O)n(CCC(=O)NCCc3ccccc3)n2)cc1	inactive: -6.7%	–
CCN(CC)CCNC(=O)c1cc2c(=O)n(C)c3cc(Cl)ccc3c2s1	inactive: -9.72%	–
